# Laboratory results: publication PMC7180231
# Amino acid sequences for entries named in this document (tags omitted). A change or cut given only in a name is not applied to a line headed by its entry. Residues count along the entry.
# UniProt Q98664: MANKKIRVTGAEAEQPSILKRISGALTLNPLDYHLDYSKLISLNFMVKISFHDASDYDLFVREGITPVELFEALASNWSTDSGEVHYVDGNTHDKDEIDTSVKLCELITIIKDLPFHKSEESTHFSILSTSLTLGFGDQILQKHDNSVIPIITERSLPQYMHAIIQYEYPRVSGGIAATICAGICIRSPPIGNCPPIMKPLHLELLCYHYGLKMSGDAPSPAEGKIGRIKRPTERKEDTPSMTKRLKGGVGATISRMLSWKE
# RYSV M protein N-terminal fragment (1-131 aa), bait in pGBKT7 (pGBKT7-M-N-terminal): residues 1-131 of Q98664
# RYSV M protein C-terminal fragment (132-262 aa), bait in pGBKT7 (pGBKT7-M-C-terminal): residues 132-262 of Q98664
# Results are given in words; binding and its absence hold for the method and conditions named. For some assays here: In cells and extracts the contact can be indirect. Some binding calls cover weakened binding; strength is not graded here.
# Tests used:
# [1] = target: RYSV M-GST (pGEX-3X-M) (rice yellow stunt virus) (UniProt Q98664); test: pull-down; GST pull-down: lysates with M-GST or GST bound to Glutathione Sepharose beads 4 h at 4°C, rinsed with 0.01 M PBS, then incubated with lysate of E. coli with His-NcHig-CCP2 4 h at 4°C; immunoblot with GST-tag and His-tag antibody; only the target purified
# [2] = target: rice yellow stunt virus (RYSV) matrix (M) protein, bait in pGBKT7 (pGBKT7-M) (rice yellow stunt virus) (UniProt Q98664); test: two-hybrid; screen of a cDNA library of N. cincticeps with RYSV M; 178 positive colonies, 62 sequenced, 27 candidates annotated by BLASTX
# [3] = target: RYSV M protein C-terminal fragment (132-262 aa), bait in pGBKT7 (pGBKT7-M-C-terminal) (rice yellow stunt virus) (UniProt Q98664); test: two-hybrid; Matchmaker Gal4 Two-Hybrid System 3; bait in pGBKT7, prey in pGADT7, co-transformed into yeast AH109; SD/-Leu/-Trp/-His/-Ade/X-alpha-gal plates
# [4] = target: RYSV M protein N-terminal fragment (1-131 aa), bait in pGBKT7 (pGBKT7-M-N-terminal) (rice yellow stunt virus) (UniProt Q98664); test: as above
# [5] = target: rice yellow stunt virus (RYSV) matrix (M) protein, bait in pGBKT7 (pGBKT7-M) (rice yellow stunt virus) (UniProt Q98664); test: as above
substance,measurement,setting,value
His-NcHig-CCP2 (pDEST17-NcHig-CCP2) (from UniProt A0A6M4C732 396-631) (domain or fragment),binding,[1],binds
"N. cincticeps homolog of the neural factor Hikaru genki (NcHig), clone found in the two-hybrid library screen (from UniProt A0A6M4C732 1-636)",binding,[2],binds
"NcHig CCP2 domains (396-631 aa), prey in pGADT7 (pGADT7-Nc-CCP2) (from UniProt A0A6M4C732 396-631) (domain or fragment)",binding,[3],no binding
same,binding,[4],no binding
same,binding,[5],binds
